Results: the supplement of paper PMC10369915
This is one part of the list. Rule as the data show it: active = 3.2 or more and inactive = the rest. Most of these values are background signal.

Target: SHP2 C-SH2 domain E139D
Experiment: enrichment score (SH2-bound / input frequency) (ratio); bacterial display of known human phosphotyrosine sites (pTyr-Var adds point mutants) read by sequencing; higher = stronger binding; tyrosines were phosphorylated by kinases first
Conditions: peptide library: pTyr-Var
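Also: displayed peptides selected on beads carrying the immobilized SH2 domain, with library peptides lacking any tyrosine serving as negative controls.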

Enrichment score, inactive:
MKKMHYVDPDR [ST3GAL5_Y99_H104R] 0.975
TDTAAYEERLR [SPTB_Y474_V478L] 0.446
VGSEDYGRDLT [SPTAN1_Y1792] 0.892
MGSYNYLGFPR [SPTLC2_Y178_A182P] 0.922
RPSELYYSKIG [SMG1_Y2253] 0.421
TLERHYEELQA [SPTBN2_Y834] 0.916
VAHAVYQAVLS [SMG1_Y549] 1.24
QDRTYYESVRT [SPEN_Y633] 0.635
VQVAFYTVMMN [SPATA17_Y84_M86V_YF] 1.2
VPVPGYTKVPE [SPRR3_Y146_L149V] 0.854
AMIADYMFWLG [SPATA16_Y290] 2.55
ESDYPYSSSYE [SRPK2_Y427_T426P] 0.446
DVYVSYDYGKS [SORL1_Y139] 0.765
ESDFPYSSSFE [SRPK2_Y427_T426P_YF] 0.444
KDHPDYKYQLR [SOX10_Y171_P175L] 0.837
KSSDVYVSFDF [SORL1_Y136_YF] 1
SASSSYSRSRS [SRRM4_Y549_R547S] 0.169
LEKISYVYMKR [SSX7_Y48] 1.31

Target: SHP2 C-SH2 domain wild-type
Experiment: as above
Conditions: peptide library: pTyr-Var

Enrichment score, inactive:
MKKMHYVDPDR [ST3GAL5_Y99_H104R] 0.891
TDTAAYEERLR [SPTB_Y474_V478L] 0.433
VGSEDYGRDLT [SPTAN1_Y1792] 0.874
MGSYNYLGFPR [SPTLC2_Y178_A182P] 1.55
RPSELYYSKIG [SMG1_Y2253] 0.448
TLERHYEELQA [SPTBN2_Y834] 0.821
VAHAVYQAVLS [SMG1_Y549] 1.06
QDRTYYESVRT [SPEN_Y633] 1.29
VQVAFYTVMMN [SPATA17_Y84_M86V_YF] 1.31
VPVPGYTKVPE [SPRR3_Y146_L149V] 0.861
AMIADYMFWLG [SPATA16_Y290] 2.89
ESDYPYSSSYE [SRPK2_Y427_T426P] 0.439
DVYVSYDYGKS [SORL1_Y139] 0.801
ESDFPYSSSFE [SRPK2_Y427_T426P_YF] 0.442
KDHPDYKYQLR [SOX10_Y171_P175L] 0.978
KSSDVYVSFDF [SORL1_Y136_YF] 1.04
SASSSYSRSRS [SRRM4_Y549_R547S] 0.309
LEKISYVYMKR [SSX7_Y48] 1.64

Target: SHP2 N-SH2 domain L43F
Experiment: as above
Conditions: peptide library: pTyr-Var

Enrichment score, inactive:
MKKMHYVDPDR [ST3GAL5_Y99_H104R] 0.844
TDTAAYEERLR [SPTB_Y474_V478L] 0.507
VGSEDYGRDLT [SPTAN1_Y1792] 1.11
MGSYNYLGFPR [SPTLC2_Y178_A182P] 1.04
RPSELYYSKIG [SMG1_Y2253] 0.53
TLERHYEELQA [SPTBN2_Y834] 0.749
VAHAVYQAVLS [SMG1_Y549] 1.25
QDRTYYESVRT [SPEN_Y633] 0.574
VQVAFYTVMMN [SPATA17_Y84_M86V_YF] 1.05
VPVPGYTKVPE [SPRR3_Y146_L149V] 0.774
AMIADYMFWLG [SPATA16_Y290] 2.65
ESDYPYSSSYE [SRPK2_Y427_T426P] 0.499
DVYVSYDYGKS [SORL1_Y139] 0.828
ESDFPYSSSFE [SRPK2_Y427_T426P_YF] 0.451
KDHPDYKYQLR [SOX10_Y171_P175L] 0.884
KSSDVYVSFDF [SORL1_Y136_YF] 0.929
SASSSYSRSRS [SRRM4_Y549_R547S] 0.31
LEKISYVYMKR [SSX7_Y48] 0.814

Target: SHP2 N-SH2 domain T42A
Experiment: as above
Conditions: peptide library: pTyr-Var

Enrichment score, inactive:
MKKMHYVDPDR [ST3GAL5_Y99_H104R] 0.741
TDTAAYEERLR [SPTB_Y474_V478L] 0.489
VGSEDYGRDLT [SPTAN1_Y1792] 0.726
MGSYNYLGFPR [SPTLC2_Y178_A182P] 2.41
RPSELYYSKIG [SMG1_Y2253] 0.475
TLERHYEELQA [SPTBN2_Y834] 1.02
VAHAVYQAVLS [SMG1_Y549] 1.05
QDRTYYESVRT [SPEN_Y633] 0.939
VQVAFYTVMMN [SPATA17_Y84_M86V_YF] 1.07
VPVPGYTKVPE [SPRR3_Y146_L149V] 0.565
AMIADYMFWLG [SPATA16_Y290] 2.09
ESDYPYSSSYE [SRPK2_Y427_T426P] 0.396
DVYVSYDYGKS [SORL1_Y139] 0.652
ESDFPYSSSFE [SRPK2_Y427_T426P_YF] 0.514
KDHPDYKYQLR [SOX10_Y171_P175L] 0.71
KSSDVYVSFDF [SORL1_Y136_YF] 0.954
SASSSYSRSRS [SRRM4_Y549_R547S] 0.233
LEKISYVYMKR [SSX7_Y48] 1.66

Target: SHP2 N-SH2 domain T52S
Experiment: as above
Conditions: peptide library: pTyr-Var

Enrichment score, inactive:
MKKMHYVDPDR [ST3GAL5_Y99_H104R] 0.786
TDTAAYEERLR [SPTB_Y474_V478L] 0.474
VGSEDYGRDLT [SPTAN1_Y1792] 0.874
MGSYNYLGFPR [SPTLC2_Y178_A182P] 0.939
RPSELYYSKIG [SMG1_Y2253] 0.467
TLERHYEELQA [SPTBN2_Y834] 0.69
VAHAVYQAVLS [SMG1_Y549] 1.17
QDRTYYESVRT [SPEN_Y633] 0.64
VQVAFYTVMMN [SPATA17_Y84_M86V_YF] 1.03
VPVPGYTKVPE [SPRR3_Y146_L149V] 0.719
AMIADYMFWLG [SPATA16_Y290] 2.42
ESDYPYSSSYE [SRPK2_Y427_T426P] 0.442
DVYVSYDYGKS [SORL1_Y139] 0.714
ESDFPYSSSFE [SRPK2_Y427_T426P_YF] 0.467
KDHPDYKYQLR [SOX10_Y171_P175L] 0.775
KSSDVYVSFDF [SORL1_Y136_YF] 0.976
SASSSYSRSRS [SRRM4_Y549_R547S] 0.344
LEKISYVYMKR [SSX7_Y48] 1.11

Target: SHP2 N-SH2 domain wild-type
Experiment: as above
Conditions: peptide library: pTyr-Var

Enrichment score, inactive:
MKKMHYVDPDR [ST3GAL5_Y99_H104R] 0.965
TDTAAYEERLR [SPTB_Y474_V478L] 0.571
VGSEDYGRDLT [SPTAN1_Y1792] 0.876
MGSYNYLGFPR [SPTLC2_Y178_A182P] 0.937
RPSELYYSKIG [SMG1_Y2253] 0.428
TLERHYEELQA [SPTBN2_Y834] 1.11
VAHAVYQAVLS [SMG1_Y549] 0.946
QDRTYYESVRT [SPEN_Y633] 0.559
VQVAFYTVMMN [SPATA17_Y84_M86V_YF] 1.69
VPVPGYTKVPE [SPRR3_Y146_L149V] 1.25
AMIADYMFWLG [SPATA16_Y290] 2.33
ESDYPYSSSYE [SRPK2_Y427_T426P] 0.389
DVYVSYDYGKS [SORL1_Y139] 0.719
ESDFPYSSSFE [SRPK2_Y427_T426P_YF] 0.519
KDHPDYKYQLR [SOX10_Y171_P175L] 0.835
KSSDVYVSFDF [SORL1_Y136_YF] 0.953
SASSSYSRSRS [SRRM4_Y549_R547S] 0.284
LEKISYVYMKR [SSX7_Y48] 0.87
